# From the BET-seq Pho4 binding data (Le et al. 2018)
# This is one part of the list. Values were computed here from the reads of four pooled replicates and scatter widely.
# Molecular target: T1, Pho4 (S. cerevisiae) (UniProt P07270)
# T1 sequence: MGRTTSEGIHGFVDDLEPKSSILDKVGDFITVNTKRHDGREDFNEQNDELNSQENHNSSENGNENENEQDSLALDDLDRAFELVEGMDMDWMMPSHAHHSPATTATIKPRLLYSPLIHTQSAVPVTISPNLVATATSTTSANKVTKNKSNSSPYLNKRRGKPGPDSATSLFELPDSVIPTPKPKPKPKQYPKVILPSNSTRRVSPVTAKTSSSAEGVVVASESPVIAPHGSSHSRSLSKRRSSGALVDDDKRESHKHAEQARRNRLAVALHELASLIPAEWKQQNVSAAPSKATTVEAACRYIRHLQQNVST
# Assay: relative binding free energy (BET-seq); higher = weaker binding
# Conditions: reference: library average
row,Sequence,relative binding free energy [kcal/mol]
1,ATTCTCACGTGGTTTA,0.19
2,AGTATCACGTGTGATA,0.21
3,ATTTTCACGTGTTTCA,0.05
4,GTGTGCACGTGTTAAA,0.02
5,TTAGTCACGTGCCAGG,0.06
6,CATGGCACGTGGGATG,-0.32
7,TAGAGCACGTGGTCAG,-0.25
8,GGGAACACGTGATGGG,0.2
9,GGTACCACGTGTATTT,0.03
10,AGTCTCACGTGTTTTT,0.17
11,GTTGGCACGTGTTATG,-0.03
12,TTAGTCACGTGTTAAT,0.17
13,GTGCTCACGTGTTATG,0.26
14,TATGACACGTGGGTGG,-0.05
15,TGGGGCACGTGGGTGT,-0.2
16,GGGTACACGTGTTTTA,0.17
17,TAATGCACGTGTGGAA,0.07
18,AAAGGCACGTGGTCAG,-0.24
19,TCGGTCACGTGGGGAA,0.03
20,AGGACCACGTGATGGT,0.06
21,GTGTACACGTGTTGTT,0.07
22,CGTGACACGTGTAGTG,-0.09
23,TTTAACACGTGAATGA,0.24
24,TTGAGCACGTGAAAGG,0.28
25,AGGTTCACGTGAGTAG,0.39

row,Sequence,relative binding free energy [kcal/mol]
1,TGTATCACGTGTTTGG,0.09
2,TGGTGCACGTGATCTG,0.04
3,TTAAACACGTGGTTAG,-0.05
4,TCGGGCACGTGCTTTT,-0.18
5,GTGTTCACGTGGATGC,0.24
6,GGATGCACGTGAGTTT,0.35
7,GTAGGCACGTGGAGGG,-0.1
8,TTTTGCACGTGAAGCT,0.09
9,AACATCACGTGTTTGT,0.08
10,CTAGACACGTGGGGAG,-0.17
11,TCAAGCACGTGGAGTT,0.09
12,TAAATCACGTGAGGGA,0.37
13,GGGGACACGTGTAGCG,0.03
14,GGTGGCACGTGACGCA,0.01
15,TCATGCACGTGAGTGG,0.12
16,AAGGGCACGTGTAGTG,-0.02
17,GCAGTCACGTGGGATT,0.03
18,TACTGCACGTGGTGCG,-0.18
19,GTTGTCACGTGTGATT,0.2
20,TATTGCACGTGTGATC,0.15
21,TATGTCACGTGTTTGG,0.18
22,TCTTTCACGTGATGTA,0.3
23,TTTACCACGTGTTAGT,-0.08
24,GCGGTCACGTGGTAAT,0.15
25,TGATACACGTGGAGTA,0.05

row,Sequence,relative binding free energy [kcal/mol]
1,TAGATCACGTGGTCTG,-0.06
2,AAATTCACGTGTGTTT,0.31
3,TTGTACACGTGCGGGC,0.08
4,AGTAACACGTGAGGGT,0.25
5,TGCGTCACGTGTAAGG,0.12
6,CGGTTCACGTGTAGTT,0.22
7,CGGTCCACGTGGGGTT,-0.08
8,AGAATCACGTGAGTTG,0.37
9,ATCGTCACGTGTGTTG,0.09
10,AGATACACGTGAGTTT,0.34
11,TCTTTCACGTGTAGTT,0.28
12,GGCTGCACGTGTAGGC,0.09
13,AGTAACACGTGTTAGT,0.01
14,CAAGGCACGTGGGTAG,-0.27
15,ACTTGCACGTGTTAGG,0.12
16,GAGTTCACGTGGTGGA,0.26
17,TCGGACACGTGTGGCG,-0.01
18,TCGGACACGTGGTTAG,0.14
19,TAGAACACGTGTGTAT,0.1
20,TGGTTCACGTGAGGTG,0.35
21,AGTTGCACGTGTGACT,0.03
22,TCGGCCACGTGGGGGC,-0.05
23,TCGTGCACGTGCTTTT,-0.03
24,GTAAGCACGTGGGCCG,-0.09
25,GGAAACACGTGTGTTG,0.1

row,Sequence,relative binding free energy [kcal/mol]
1,CGTAACACGTGGAGGG,-0.08
2,GAGGTCACGTGATGAG,0.35
3,ATGTTCACGTGAATAG,0.28
4,TAAGTCACGTGATTGG,0.26
5,CGTTGCACGTGAGTAG,0.27
6,GTGGGCACGTGGGATC,-0.11
7,TGGGGCACGTGCTTGC,-0.27
8,GTATACACGTGTGGTG,0.01
9,GGATTCACGTGGCGTG,0.29
10,TTGGGCACGTGTTGCT,-0.01
11,TTCGGCACGTGGCTTG,-0.18
12,TTTTTCACGTGGGCGT,0.15
13,TGTGACACGTGATGCG,-0.14
14,GTTTACACGTGCGGTT,0.11
15,GTCTGCACGTGTGAGA,0.09
16,GTAGACACGTGGTCGG,-0.05
17,TAGGGCACGTGTCGTG,-0.13
18,AGTGGCACGTGTGGTG,0.02
19,GTTGGCACGTGTGTCT,-0.07
20,GTGTGCACGTGTGGCA,0.04
21,TGTTGCACGTGAGGTG,0.19
22,TAGGACACGTGAATGT,0.18
23,CGTGACACGTGAAGGT,0.2
24,ATGTACACGTGAATAG,0.24
25,GGTGTCACGTGGCCGT,0.07

row,Sequence,relative binding free energy [kcal/mol]
1,CTATGCACGTGATGTT,0.14
2,TGTTCCACGTGGTGCA,-0.01
3,ATGGGCACGTGGGTGT,-0.22
4,TTATTCACGTGTTAAT,0.28
5,GAAGTCACGTGATATG,0.13
6,TGGTACACGTGTAAAT,0.34
7,TTGATCACGTGTCTTG,0.16
8,TGGCACACGTGGGGCG,-0.1
9,TATGGCACGTGATTAT,0
10,TGGTGCACGTGTATTG,-0.07
11,TGAGCCACGTGATTTG,0.23
12,GCGATCACGTGGGCTG,0.04
13,TTTGTCACGTGGCGGC,0.04
14,TTGATCACGTGTACGG,0.23
15,TTTGTCACGTGTTAAC,0.13
16,GATAGCACGTGCGGGA,-0.07
17,AGCGGCACGTGTGGAG,-0.12
18,TGTTCCACGTGTTGAT,0.01
19,CCGGGCACGTGGGGGT,-0.29
20,TAGATCACGTGTTAGG,0.21
21,GTGTACACGTGAGGGC,0.31
22,TGGAGCACGTGAGGTT,0.18
23,GTGTCCACGTGGGTTA,-0.04
24,TGTAACACGTGTTATG,-0.07
25,TGGGACACGTGTTTGT,0.05

row,Sequence,relative binding free energy [kcal/mol]
1,GGTATCACGTGAATAG,0.51
2,GGTGTCACGTGGGACC,0.02
3,CTTTACACGTGTGTCT,0.12
4,TTTTACACGTGTTGTG,0.19
5,TAGCTCACGTGGTGGT,0.33
6,GTTAGCACGTGTTGGA,-0.02
7,TTGTACACGTGGAAGT,0.13
8,TGGATCACGTGGCTGG,0.17
9,CGGGGCACGTGTAATA,0.1
10,AGTATCACGTGGGTAA,0.19
11,TGGAACACGTGCTGGG,0.02
12,TGGTTCACGTGAAAAG,0.34
13,GTTCTCACGTGATTGT,0.23
14,GTGTCCACGTGGGGGG,-0.08
15,AGTTGCACGTGTTTAT,-0.03
16,GTAGACACGTGGTTTT,0.03
17,CGGGTCACGTGGAGGA,0.15
18,ATGGACACGTGAGGCG,0.16
19,TGTCACACGTGGTAGT,-0.03
20,AGGGTCACGTGAGCGT,0.19
21,GGTTGCACGTGTGCCG,0.11
